Common to all, as to test: Primary Screen for Target Class Profiling of Small Molecule Inhibitors of Methyltransferases
The target of assay [1] is Glycine N-methyltransferase (Homo sapiens) (UniProt Q14749). The conditions noted are these: purified enzyme, MTase-Glo SAH luminescence; measured here: GNMT inhibition; at 40 µM; stronger effect = lower value. An excerpt: (§1) PI: Matthew D. Hall Ph.D. and Quinlin M. Hanson Ph.D.
(§2) National Center for Advancing Translational Sciences (NCATS)
(§3) National Institute of Health (NIH), Rockville, MD
(§4) Target class profiling (TCP) is a chemical biology approach amenable to investigating understudied biological targets. TCP is achieved by developing a generalizable assay platform and applying it to screen a curated set of compound libraries against representative members of a target class. Small molecule methyltransferases (SMMTase) are a subclass of methyltransferase that act on metabolites to modulate signaling pathways, metabolize xenobiotics, or balance the available methyl pool. We screened four curated libraries totaling 27,574 unique compounds against the SMMTases nicotinamide N-methyltransferase (NNMT), phenylethanolamine N-methyltransferase (PNMT), histamine N-methyltransferase (HNMT), glycine N-methyltransferase (GNMT), catechol O-methyltransferase (COMT), and guanidinoacetate N-methyltransferase (GAMT). The data generated by this TCP can be leveraged for informed tool molecule development. For example, in the associated publication we identified a chemotype of HNMT-selective inhibitors. Additionally, we identified a putative SMMTase-selective inhibitor with potential as a tool molecule for studying broader methyltransferase biology.
(§5) High-through put screening assays were developed at the National Center for Advancing Translational Science (NCATS) for the enzymes NNMT, PNMT, HNMT, GNMT, COMT, and GAMT. Enzymatic activity was measured as a function of SAM cofactor conversion using the MTase Glo kit (Promega) for all enzymes. All assays were performed in 1536-well format with substrates and SAM concentrations at KM values. Enzyme concentration and assay timing were optimized for 10-20% SAM conversion. Initial screening of 27,574 compounds was done as single-point assays using the highest compound concentration (40 uM). […] These compounds were replated in 11-point dose response and assayed against NNMT, PNMT, HNMT, GNMT, COMT, GAMT, and a counter-assay. The IC50 and efficacy (maximal response) values were determined for each dose-response curve. These values are also accounted for in the area under the curve (AUC) values.
(§6) PROTOCOL TABLE (as described by Inglese J, Shamu CE and Guy RK. 2007)
(§7) SEQUENCE No. (e.g., 1, 2, 3, etc.); […] (e.g., Cells, Incubation, Reagent, etc.); VALUE; DESCRIPTION.
(§8) 1; Reagent; 2 uL; SMMTase Enzyme (2x) in reaction buffer, columns 1- 48.
(§9) 2; Reagent; 1 uL; SAM (4x) in reaction buffer, columns 1-48.
(§10) 3; Controls; 23 nL; DMSO in column 4; sinefungin in DMSO (0 uM - 40 uM) in 7-point 1:2 dilution series (n = 2) in column 2.
(§11) 4; Compounds; 23 nL; Columns 5-48.
(§12) 5; Reagent; 1 uL; Substrate (4x) in reaction buffer, columns 2-48.
(§13) 6; Time; 20-30 min; Incubation.
(§14) 7; Reagent; 1 uL; MTase-Glo reagent (5X), columns 1-48.
(§15) 8; Time; 30 min; Incubation.
(§16) 9; Reagent; 5 uL; MTase-Glo Detection reagent, columns 1-48.
(§17) 10; Time; 30 min; Incubation, luminescence evolution.
(§18) 11; Detection; Luminescence; ViewLux uHTS Microplate Imager (PerkinElmer).
(§19) NOTES (numbers refer to Sequence numbers above)
(§20) 1, 2, 5. White Medium Binding Greiner 1536-well plates (Cat #789175-F, Greiner Bio-One, Monroe, NC); Reaction buffer: 50 mM Tris, pH 8.0, 3 mM MgCl2, 1 mM EDTA, 50 mM NaCl, 1 mM DTT, and 0.1 mg/mL BSA. Evaporation was prevented by covering assay plates with metal lids containing holes to allow gas diffusion.
(§21) 1. Six SMMTase were profiled: HNMT, GNMT, PNMT, COMT, NNMT, GAMT
(§22) 5. The corresponding substrate was used for each enzyme: HNMT - 5.3 uM Histamine; GNMT - >500 uM Glycine; PNMT - 16.2 uM Norephinephrine; COMT - 13.7 uM Norephinephrine; NNMT - 3.8 uM Nicotinamide; GAMT - 2.5 uM Guanidinoacetate.6, 8, 10. Room temperature
(§23) 6. Final reaction conditions: 10 nM COMT, 5 uM SAM, 15 uM norepinephrine, 50 mM Tris, pH 8.0, 3 mM MgCl2, 1 mM EDTA, 50 mM NaCl, 1 mM DTT, and 0.1 mg/mL BSA; refer to tables 2 and S1 for specific timing.
8. […]

Assay [2] concerns the target Guanidinoacetate N-methyltransferase (Homo sapiens) (UniProt Q14353). The conditions noted are these: purified enzyme, MTase-Glo SAH luminescence; measured here: GAMT inhibition; at 40 µM; stronger effect = lower value.
Description: as §1, §2, §3, §4, §5, §6, §7, §8, §9, §10, §11, §12, §13, §14, §15, §16, §17, §18, §19, §20, §21, §22, §23
8. […]

Assay [3] concerns the target Histamine N-methyltransferase (Homo sapiens) (UniProt P50135). The settings on record: purified enzyme, MTase-Glo SAH luminescence; measured here: HNMT inhibition; at 40 µM; stronger effect = lower value.
Description: as §1, §2, §3, §4, §5, §6, §7, §8, §9, §10, §11, §12, §13, §14, §15, §16, §17, §18, §19, §20, §21, §22, §23
8. […]

The target of assay [4] is Nicotinamide N-methyltransferase (Homo sapiens) (UniProt P40261). The conditions noted are these: purified enzyme, MTase-Glo SAH luminescence; measured here: NNMT inhibition; at 40 µM; stronger effect = lower value.
Description: as §1, §2, §3, §4, §5, §6, §7, §8, §9, §10, §11, §12, §13, §14, §15, §16, §17, §18, §19, §20, §21, §22, §23
8. […]

For assay [5], the target named is Phenylethanolamine N-methyltransferase (Homo sapiens) (UniProt P11086). The settings on record: purified enzyme, MTase-Glo SAH luminescence; measured here: PNMT inhibition; at 40 µM; stronger effect = lower value.
Description: as §1, §2, §3, §4, §5, §6, §7, §8, §9, §10, §11, §12, §13, §14, §15, §16, §17, §18, §19, §20, §21, §22, §23
8. […]

Each structure is given as a SMILES string. Values joined by “and” are separate entries in the source; they are usually repeats but may differ in a detail not shown here. Identical values can stand only once. The list shows a part of the results. These are further read-outs of the screen, such as a control signal, another cell line or another target. No call is given for them.
% is set by controls: 0 for no effect and ±100 for the full control effect.

For the molecule `Cc1cccc(C2c3cccn3-c3ccccc3CN2C(=O)Nc2ccc(Br)cc2)c1` (stereo not given), the activity change, negative = inhibition in assay [1] was 4%; in assay [2], 4.86%; in assay [3], 3.3%; in assay [4] it was 5.02%; in assay [5], -0.841%.

On to `O=C(Nc1ccccc1)N1Cc2ccccc2-n2cccc2C1c1ccc(F)cc1` (stereo not given), for which the activity change, negative = inhibition in assay [1] was -2.79%; in assay [2], 0%; in assay [3] it was -0.09%; in assay [4], -3%; in assay [5] it was 4.48%.

Regarding `C=C1C(=O)O[C@@H]2[C@H]3C(=C)[C@@H](O)C[C@H]3C(=C)C[C@@H](O)[C@@H]12`, the activity change, negative = inhibition is -3.73% in assay [1]; 1.16% in assay [2]; 11.3% in assay [3]; -5.72% in assay [4]; 2.86% in assay [5].

Take `O=C(CCCN1CCC2(CC1)C(=O)NCN2c1ccccc1)c1ccc(F)cc1`: the activity change, negative = inhibition was 2.33% in assay [1]; 13.1% in assay [2]; -17.1% in assay [3]; -2.8% in assay [4]; 2.46% in assay [5].

Regarding `COC[C@H]1OC(=O)c2coc3c2[C@@]1(C)C1=C(C3=O)C2CCC(=O)[C@@]2(C)C[C@H]1OC(C)=O` (stereo not given in full), the activity change, negative = inhibition is -31.7% and -6.07% in assay [1]; 7.39% and 0.561% in assay [2]; 1.07% and 1.52% in assay [3]; -1.68% and -10.5% in assay [4]; 7.22% and -8.08% in assay [5].

As for `O=C(c1ccccc1)N1C[C@@H](c2ccc3c(c2)OCO3)[C@@H]2[C@H]1C1CCN2CC1`, the activity change, negative = inhibition in assay [1] is -5.68%; in assay [2], -3.93%; in assay [3] it was -2.37%; in assay [4], -9.16%; in assay [5], -4.91%.

`CC1=CC2/C=C(\C)CCC(O)C(O)/C=C/C(=O)C23C(=O)NC(CC(C)C)C3C1C` (stereo not given): the activity change, negative = inhibition in assay [1] was 1.08%; in assay [2], 12.2%; in assay [3], 4.95%; in assay [4], -2.03%; in assay [5], 2.04%.

In the case of `O=C(NCc1ccccc1)N1Cc2ccccc2-n2cccc2C1c1cccs1` (stereo not given), the activity change, negative = inhibition in assay [1] was 9.08%; in assay [2], 0%; in assay [3] it was -1.96%; in assay [4], -0.058%; in assay [5] it was 5.02%.

As to `C[C@]12CC[C@H](O[C@@H]3O[C@H](CO)[C@@H](O)[C@H](O)[C@H]3O)CC1=CC[C@@H]1C2CC[C@]2(C)[C@@H](C3=CC(=O)OC3)CC[C@]12O` (stereo not given in full), the activity change, negative = inhibition in assay [1] was 10.2%; in assay [2] it was 9.05%; in assay [3], 10.2%; in assay [4], -3.79%; in assay [5], 7.52%.

As to `CN1C(=O)N(c2ccc(C#N)c(C(F)(F)F)c2)C(=O)[C@]1(CO)c1ccccc1`, the activity change, negative = inhibition in assay [1] was 6.03%; in assay [2], 7.51%; in assay [3], 9.55%; in assay [4], -2.26%; in assay [5], 7.82%.

Regarding `CCC1c2cccn2-c2ccccc2CN1C(=O)NCc1ccccc1` (stereo not given), the activity change, negative = inhibition in assay [1] was -5.7%; in assay [2], 0.245%; in assay [3] it was -17.8%; in assay [4], -9.23%; in assay [5] it was -3.24%.

As to `NCC1(CC(=O)O)CCCCC1`, the activity change, negative = inhibition in assay [1] is 5.66%; in assay [2], 10.4%; in assay [3], 7.99%; in assay [4], -5.14%; in assay [5], 4.67%.

As for `Cc1ccc(C2c3cccn3-c3ccccc3CN2C(=O)NC2CCCC2)cc1` (stereo not given), the activity change, negative = inhibition in assay [1] is 9.1%; in assay [2] it was 0%; in assay [3] it was 4.45%; in assay [4], -1.6%; in assay [5], -6.12%.

For `CN1CCc2cc3c(cc2[C@H]1[C@@H]1OC(=O)c2c1ccc1c2OCO1)OCO3`, the activity change, negative = inhibition in assay [1] is -8.79%; in assay [2] it was -14.1%; in assay [3], -0.811%; in assay [4], -23.4%; in assay [5] it was -8.33%.

As to `C[C@@H]1O[C@@H](O[C@H]2C[C@@H](O)[C@]3(CO)[C@@H]4C(CC[C@]3(O)C2)[C@@]2(O)CC[C@H]([C@@H]3COC(=O)C3)[C@@]2(C)C[C@H]4O)[C@H](O)[C@H](O)[C@H]1O` (stereo not given in full), the activity change, negative = inhibition was 3.88% in assay [1]; 12% in assay [2]; 5.45% in assay [3]; -3.4% in assay [4]; 7.58% in assay [5].

Take `CC(C)N1CC2CCC(C1)N2S(=O)(=O)C1CC1`: the activity change, negative = inhibition was -1.04% in assay [1]; 1.18% in assay [2]; -0.567% in assay [3]; -2.66% in assay [4]; 0.997% in assay [5].

As for `COC1CC(O[C@H]2CC[C@@]3(C)C(=CCC4C3C(O)[C@@H](O)[C@]3(C)[C@@H](C(C)=O)CC[C@]43O)C2)OC(C)C1OC1CC(OC)C(OC2OC(C)C(O)C(O)C2O)C(C)O1` (stereo not given in full), the activity change, negative = inhibition is 2.01% in assay [1]; 7.09% in assay [2]; 11.6% in assay [3]; -5.35% in assay [4]; 6.81% in assay [5].

Regarding `COC(=O)CCNC(=O)N1Cc2ccccc2-n2cccc2C1c1ccc(OC)c(OC)c1` (stereo not given), the activity change, negative = inhibition in assay [1] was 7.2%; in assay [2], 3.02%; in assay [3] it was 0.953%; in assay [4], -4.08%; in assay [5], 1.72%.
